Data on 31 molecules can be found in article PMC9911399, “Two distinct binding modes provide the RNA-binding protein RbFox with extraordinary sequence specificity”.

Changes are numbered by the printed parent chain; changes in the protein carry UniProt numbers. Some of the results follow.

To fix the notation:
T1: RBFOX1 RRM (Homo sapiens, UniProt Q9NWB1 109-208)
T1 sequence: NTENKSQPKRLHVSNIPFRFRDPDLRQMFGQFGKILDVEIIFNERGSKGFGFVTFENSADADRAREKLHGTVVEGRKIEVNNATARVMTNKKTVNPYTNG

B1: UGAUUUG (DNA:RNA)
RNA: GGGAGACCGGAAUUCAGAUUGUCCUGAUUUGUUAAAUCCCGUCGUAGCCACCA
DNA 1: CAATCTGAATTCCGGTCTCCC
DNA 2: TGGTGGCTACGACGGGATT
B2: UGACGUA (DNA:RNA)
RNA: B1 RNA with U28C, U29G, G31A
DNA 1: CAATCTGAATTCCGGTCTCCC
DNA 2: TGGTGGCTACGACGGGATT
B3: UACUCUA (DNA:RNA)
RNA: B1 RNA with G26A, A27C, U29C, G31A
DNA 1: CAATCTGAATTCCGGTCTCCC
DNA 2: TGGTGGCTACGACGGGATT
B4: GGUUACA (DNA:RNA)
RNA: B1 RNA with U25G, A27U, U29A, U30C, G31A
DNA 1: CAATCTGAATTCCGGTCTCCC
DNA 2: TGGTGGCTACGACGGGATT
B5: AAUACGA (DNA:RNA)
RNA: GGGAGACCGGAAUUCAGAUUGUCCAAUACGAUUAAAUCCCGUCGUAGCCACCA
DNA 1: CAATCTGAATTCCGGTCTCCC
DNA 2: TGGTGGCTACGACGGGATT
B6: UCAACUU (DNA:RNA)
RNA: B1 RNA with G26C, U28A, U29C, G31U
DNA 1: CAATCTGAATTCCGGTCTCCC
DNA 2: TGGTGGCTACGACGGGATT
B7: UACUACG (DNA:RNA)
RNA: B1 RNA with G26A, A27C, U29A, U30C
DNA 1: CAATCTGAATTCCGGTCTCCC
DNA 2: TGGTGGCTACGACGGGATT
B8: AUAUCUU (DNA:RNA)
RNA: B1 RNA with U25A, G26U, U29C, G31U
DNA 1: CAATCTGAATTCCGGTCTCCC
DNA 2: TGGTGGCTACGACGGGATT
B9: GUACUGG (DNA:RNA)
RNA: B1 RNA with U25G, G26U, U28C, U30G
DNA 1: CAATCTGAATTCCGGTCTCCC
DNA 2: TGGTGGCTACGACGGGATT
B10: GCCCGAU (DNA:RNA)
RNA: GGGAGACCGGAAUUCAGAUUGUCCGCCCGAUUUAAAUCCCGUCGUAGCCACCA
DNA 1: CAATCTGAATTCCGGTCTCCC
DNA 2: TGGTGGCTACGACGGGATT
B11: GGUCGAG (DNA:RNA)
RNA: B10 RNA with C26G, C27U, U31G
DNA 1: CAATCTGAATTCCGGTCTCCC
DNA 2: TGGTGGCTACGACGGGATT
B12: CGUUAGC (DNA:RNA)
RNA: B5 RNA with A25C, A26G, A28U, C29A, A31C
DNA 1: CAATCTGAATTCCGGTCTCCC
DNA 2: TGGTGGCTACGACGGGATT
B13: GACCAAA (DNA:RNA)
RNA: B10 RNA with C26A, G29A, U31A
DNA 1: CAATCTGAATTCCGGTCTCCC
DNA 2: TGGTGGCTACGACGGGATT
B14: GUUUGAG (DNA:RNA)
RNA: B10 RNA with C26U, C27U, C28U, U31G
DNA 1: CAATCTGAATTCCGGTCTCCC
DNA 2: TGGTGGCTACGACGGGATT
B15: UUUCUUA (DNA:RNA)
RNA: B1 RNA with G26U, A27U, U28C, G31A
DNA 1: CAATCTGAATTCCGGTCTCCC
DNA 2: TGGTGGCTACGACGGGATT
B16: UAUUAUG (DNA:RNA)
RNA: B1 RNA with G26A, A27U, U29A
DNA 1: CAATCTGAATTCCGGTCTCCC
DNA 2: TGGTGGCTACGACGGGATT
B17: UUCCCGU (DNA:RNA)
RNA: B10 RNA with G25U, C26U, G29C, A30G
DNA 1: CAATCTGAATTCCGGTCTCCC
DNA 2: TGGTGGCTACGACGGGATT
B18: UCGUUCG (DNA:RNA)
RNA: B1 RNA with G26C, A27G, U30C
DNA 1: CAATCTGAATTCCGGTCTCCC
DNA 2: TGGTGGCTACGACGGGATT
B19: CCUGCAG (DNA:RNA)
RNA: B5 RNA with A25C, A26C, A28G, G30A, A31G
DNA 1: CAATCTGAATTCCGGTCTCCC
DNA 2: TGGTGGCTACGACGGGATT
B20: GCUAUUA (DNA:RNA)
RNA: B5 RNA with A25G, A26C, C29U, G30U
DNA 1: CAATCTGAATTCCGGTCTCCC
DNA 2: TGGTGGCTACGACGGGATT
B21: CAAAGGG (DNA:RNA)
RNA: B5 RNA with A25C, U27A, C29G, A31G
DNA 1: CAATCTGAATTCCGGTCTCCC
DNA 2: TGGTGGCTACGACGGGATT
B22: AUGUCGG (DNA:RNA)
RNA: B5 RNA with A26U, U27G, A28U, A31G
DNA 1: CAATCTGAATTCCGGTCTCCC
DNA 2: TGGTGGCTACGACGGGATT
B23: UCAUUGC (DNA:RNA)
RNA: B1 RNA with G26C, U30G, G31C
DNA 1: CAATCTGAATTCCGGTCTCCC
DNA 2: TGGTGGCTACGACGGGATT
B24: UAACUGA (DNA:RNA)
RNA: B5 RNA with A25U, U27A, A28C, C29U
DNA 1: CAATCTGAATTCCGGTCTCCC
DNA 2: TGGTGGCTACGACGGGATT
B25: CCCGAUG (DNA:RNA)
RNA: B10 RNA with G25C, C28G, G29A, A30U, U31G
DNA 1: CAATCTGAATTCCGGTCTCCC
DNA 2: TGGTGGCTACGACGGGATT
B26: AAACACU (DNA:RNA)
RNA: B5 RNA with U27A, A28C, C29A, G30C, A31U
DNA 1: CAATCTGAATTCCGGTCTCCC
DNA 2: TGGTGGCTACGACGGGATT
B27: UGUAGGC (DNA:RNA)
RNA: B5 RNA with A25U, A26G, C29G, A31C
DNA 1: CAATCTGAATTCCGGTCTCCC
DNA 2: TGGTGGCTACGACGGGATT
B28: UUGCAAC (DNA:RNA)
RNA: B10 RNA with G25U, C26U, C27G, G29A, U31C
DNA 1: CAATCTGAATTCCGGTCTCCC
DNA 2: TGGTGGCTACGACGGGATT
B29: UCAGCAC (DNA:RNA)
RNA: B10 RNA with G25U, C27A, C28G, G29C, U31C
DNA 1: CAATCTGAATTCCGGTCTCCC
DNA 2: TGGTGGCTACGACGGGATT
B30: AUUUUAU (DNA:RNA)
RNA: B5 RNA with A26U, A28U, C29U, G30A, A31U
DNA 1: CAATCTGAATTCCGGTCTCCC
DNA 2: TGGTGGCTACGACGGGATT
B31: CUCCACU (DNA:RNA)
RNA: B10 RNA with G25C, C26U, G29A, A30C
DNA 1: CAATCTGAATTCCGGTCTCCC
DNA 2: TGGTGGCTACGACGGGATT

In this assay the target is T1, RBFOX1 RRM. Kind of assay: EMSA; HiTS-Eq, 1 nM pool, 10 min; buffer printed only for the single-RNA assays: 10 mM Tris pH 7.5, 150 mM NaCl, 3.4 mM EDTA, 0.001% NP-40, 30 C. Particulars: tags: His6 N-terminal (pET28a); label: 5' 32P. The method, boiled down: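 Relative association constants, normalised to the cognate motif, were derived by comparing read counts of each RNA species with those of the control reaction. The RNA sequenced was the free fraction, separated by 8% native PAGE after a 10 min equilibration in 50 µL of 1 nM 5′-radiolabelled RNA (7 randomized nucleotides) with increasing concentrations of purified wild-type or mutant RbFox RRM.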
On the technique in general: Mobility shift assays separate free from complexed probe on a gel.
B1: the binding signal was 0.0276 KA relative to UGCAUGU.
Consider B2, for which the binding signal was 0.0165 KA relative to UGCAUGU.
On to B3, for which the binding signal was 0.00265 KA relative to UGCAUGU.
Then B4, with 0.00439 KA relative to UGCAUGU; and B5, with 0.00285 KA relative to UGCAUGU.
For B6 the value was 0.00236 KA relative to UGCAUGU; for B7, 0.0111 KA relative to UGCAUGU; for B8, 0.00164 KA relative to UGCAUGU.
For B9 the value was 0.0161 KA relative to UGCAUGU.
As for B10, the binding signal was 0.0157 KA relative to UGCAUGU.
For B11 the value was 0.0142 KA relative to UGCAUGU.
Take B12: the binding signal was 0.0114 KA relative to UGCAUGU.
Then B13, with 0.00104 KA relative to UGCAUGU.
For B14 the value was 0.0281 KA relative to UGCAUGU; for B15, 0.0046 KA relative to UGCAUGU.
For B16 the value was 0.0115 KA relative to UGCAUGU; for B17, 0.00458 KA relative to UGCAUGU; for B18, 0.0211 KA relative to UGCAUGU.
For the molecule B19, the binding signal is 0.014 KA relative to UGCAUGU.
Then B20, with 0.00365 KA relative to UGCAUGU; and B21, with 0.00628 KA relative to UGCAUGU.
Take B22: the binding signal is 0.0196 KA relative to UGCAUGU.
Then B23, with 0.0115 KA relative to UGCAUGU; and B24, with 0.0111 KA relative to UGCAUGU.
Regarding B25, the binding signal is 0.00929 KA relative to UGCAUGU.
For B26, the binding signal was 0.00096 KA relative to UGCAUGU.
Then B27, with 0.014 KA relative to UGCAUGU.
Consider B28, for which the binding signal is 0.0154 KA relative to UGCAUGU.
Then B29, with 0.00795 KA relative to UGCAUGU; and B30, with 0.00281 KA relative to UGCAUGU.
Consider B31, for which the binding signal was 0.00344 KA relative to UGCAUGU.
